Measurements taken from PubChem BioAssay AID463173 (ICCB-Longwood Screening Facility, Harvard Medical School, 2010).
Among all 52,000 compounds or so, about 4,300 (8.3%) were called active. Rule as the data show it: active = survival mostly below about 52% (no sharp cut-off); inactive = mostly above about 56%. Some of the results follow.

What follows are compounds tested on DeltatarO mutant (assay: S. aureus survival, RN4220 and DeltatarO strains – OD600, teichoic acid synthesis inhibitors, primary screen (AID 463173)). Conditions: S. aureus RN4220 wild type/DeltatarO growth, OD600, 18 h, active compounds read low, screened at 18.75 µg/mL (by protocol).
With `CCOc1ccc(N2CC(NC(=O)C3CC3)CC2=O)cc1` (centres undefined) the survival was inactive: 80%. `O=S(=O)(NC1CC2CCC1C2)c1ccc2c(c1)OCCO2` (centres undefined) was tested, and the survival was inactive: 78%. For `NC(Cc1ccc2nonc2c1)C(=O)O` (centres undefined), the survival was inactive: 100%. In the case of `COCCNC(=O)CN1C(=O)c2cccnc2Oc2ccc(Cl)cc21`, the survival is reported as inactive: 85%. In the case of `CCOc1ccc(NC(=O)N2CCN3CCCCC3C2)cc1` (centres undefined), the survival is reported as inactive: 95%. With `CCOC(=O)c1ccc(N2C(=O)c3n[nH]c(-c4ccco4)c3C2c2cccc(O)c2)cc1` (centres undefined) the survival was active: -8%. `COc1ccc(S(=O)(=O)NCc2nc3nc(C)cc(C)n3n2)cc1OC` was tested, and the survival was inactive: 85%. For `COc1ccc(Nc2c3c(nc4nncn24)CCC3)cc1OC`, the survival was inactive: 70%. With `Cc1ccc(Nc2ncccc2C(=O)NC2CCCCC2)cc1` the survival was inactive: 82%. With `O=C(CN(Cc1ccccc1Cl)C(=O)c1ccc(CN2CCOCC2)o1)NCc1ccccc1` the survival was inactive: 105%. In the case of `CCc1nn(CC(=O)Nc2ccc(NC(C)=O)cc2)c(=O)c2cc3sccc3n12`, the survival is reported as inactive: 87%. In the case of `COc1ccc(CNC(=O)CSc2c3c(nc4ccc(Cl)cc24)CCCC3)cc1`, the survival is reported as inactive: 77%. `O=C(CCCn1c(=O)c2cccn2c2ccccc21)NCc1ccccc1Br` was tested, and the survival was active: 43%. In the case of `Cc1ccc(Nc2sc(C(=O)c3ccccc3)c(N)c2C(N)=O)cc1`, the survival is reported as inactive: 124%. In the case of `CC1CCN(C(=O)C2COc3ccccc3C2)CC1` (centres undefined), the survival is reported as inactive: 57%. `O=C(NC1CCCCC1)C(c1ccc(F)cc1)N(Cc1ccco1)C(=O)c1ccccn1` (centres undefined) was tested, and the survival was inactive: 70%. `Cc1cccc(NC(=O)c2oc3ccccc3c2NC(=O)Cc2coc3ccc(C(C)C)cc23)c1` was tested, and the survival was inactive: 67%. For `O=[N+]([O-])c1cc(-c2nc(-c3ccccc3)no2)ccc1N1CCOCC1`, the survival was inactive: 65%. In the case of `COc1ccc(-c2nc(CCNC(=O)c3ccc(Br)o3)cs2)cc1`, the survival is reported as inactive: 122%. With `CCOc1ccccc1NC(=O)C1=C(C)Nc2ncnn2C1c1ccc(C)o1` (centres undefined) the survival was inactive: 70%. With `CCc1ccccc1NC(=O)Cn1c(SCc2ccc(F)cc2)nc2ccncc21` the survival was active: 36%. In the case of `CCc1cccc(CC)c1NC(=O)CCS(=O)(=O)c1ccc2c(c1)CCN2C(C)=O`, the survival is reported as inactive: 92%. For `COc1ccc(-c2nc(CNS(=O)(=O)c3cccc(F)c3)cs2)cc1`, the survival was inactive: 89%. With `CC1(C)CC(=O)C2=C(C1)NCN(Cc1ccccc1)C2` the survival was inactive: 87%. In the case of `COc1ccc(OC)c(CNCc2c(C(=O)O)n(Cc3cccc(F)c3)c3cc(OC)ccc23)c1`, the survival is reported as active: -1%. For `Cc1ccc(C(c2c(O)cc(C)n(Cc3ccco3)c2=O)N2CCC(C)CC2)cc1` (centres undefined), the survival was inactive: 80%. In the case of `NC(=O)CN(C1CCCCC1)S(=O)(=O)c1ccc(Br)cc1`, the survival is reported as inactive: 96%. For `Cc1cc(-c2ccc(C)c(S(=O)(=O)NCC3CCN(Cc4ccccc4F)CC3)c2)on1`, the survival was inactive: 55%. With `CC(C)(O)/C(=C\C#N)n1c(=O)oc2ccccc21` the survival was inactive: 85%. `Cc1ccc(SCC(=O)Nc2ccc3oc(-c4cccc(Cl)c4)nc3c2)cc1` was tested, and the survival was inactive: 72%. `O=C(Cn1ncc2c3ccccc3n(Cc3ccc(F)cc3)c2c1=O)NCc1ccccn1` was tested, and the survival was inactive: 79%. `O=C(NCc1ccccc1)C(=O)Nc1c2c(nn1-c1ccccc1)CSC2` was tested, and the survival was inactive: 87%. With `CS(=O)(=O)c1ccc2sc(N)nc2c1` the survival was inactive: 74%. `CCOC(=O)c1cccc(NC(=O)c2cnc3sc(N4CCOCC4)nn3c2=O)c1` was tested, and the survival was inactive: 90%. With `Cc1ccc2c(c1)c1c(c(=O)n(Cc3ccccc3)c(=O)n1CC(=O)Nc1ccccc1F)n2C` the survival was inactive: 75%. With `Cc1ccccc1CCNC(=O)c1ccc2c(c1)nc1n2CCCCC1` the survival was inactive: 83%. In the case of `Cc1cc(C)cc(NC(=O)C2CC(=O)N(c3ccccc3)C2)c1` (centres undefined), the survival is reported as inactive: 78%. With `Cc1ccc(-c2nc3ccccc3o2)cc1NC(=O)Cc1ccc(Cl)cc1` the survival was inactive: 73%. For `O=C(CCn1c(=O)c2sccc2n(Cc2ccc(F)cc2Cl)c1=O)NCc1ccc2c(c1)OCO2`, the survival was inactive: 83%. In the case of `O=C(Nc1sc2c(c1C(=O)NCC1CCCO1)CCCC2)c1cc(=O)c2ccccc2o1` (centres undefined), the survival is reported as inactive: 50%. In the case of `Cc1cccc(-c2nc(CN3CCCC(C(=O)NCCc4ccc(Cl)cc4)C3)c(C)o2)c1` (centres undefined), the survival is reported as active: 34%. `COc1ccc(OC)c(S(=O)(=O)NCC(c2cccs2)S(=O)(=O)c2ccc(F)cc2)c1` (centres undefined) was tested, and the survival was inactive: 106%. `Cc1cc(F)ccc1NC(=O)C1CCC(CNS(=O)(=O)c2ccc3c(c2)CCCC(=O)N3)CC1` (centres undefined) was tested, and the survival was inactive: 80%. With `CCCS(=O)(=O)N1CCC(C(=O)NCCOC)CC1` the survival was inactive: 67%. For `Cc1ccccc1NC(=O)c1sc2nc3c(cc2c1N)CN(Cc1ccccc1)CC3`, the survival was inactive: 90%. `Cc1nc2ncccn2c1-c1csc(NCc2ccco2)n1` was tested, and the survival was inactive: 80%. For `O=C(O)c1ccc(Cn2c(SCc3ccc(F)cc3)nc3ccncc32)cc1`, the survival was inactive: 88%. With `COCCNc1ccc2cc(S(=O)(=O)N3CCCCC3)ccc2n1` the survival was inactive: 84%. For `COCCNC(=O)CCCn1c(SCC(=O)NCc2ccc(C)cc2)nc2c(sc3ccccc32)c1=O`, the survival was inactive: 87%. `CCC(C)NC(=O)c1sc2nc(C)c(C(=O)Nc3ccc(C)cc3C)c(-c3ccc(NC(C)=O)cc3)c2c1N` (centres undefined) was tested, and the survival was inactive: 88%. `Cc1ccccc1OCCn1cc(/C=C(\C#N)C(=O)NC2CC2)c2ccccc21` was tested, and the survival was inactive: 58%. In the case of `Cc1ccccc1Cn1c(=O)n(-c2ccc(Cl)cc2)c(=O)c2c3c(sc21)CCCC3`, the survival is reported as inactive: 114%. `CCc1ccc(NS(=O)(=O)c2[nH]ncc2C(=O)OC)cc1` was tested, and the survival was inactive: 64%. With `COc1ccc(Cn2c(C(=O)O)c(CNCc3ccc(SC)cc3)c3ccc(OC)cc32)cc1` the survival was inactive: 56%. `CC(C)NC(=O)CN1C(=O)CCn2nc(-c3cn(C)c4ccccc34)cc21` was tested, and the survival was inactive: 102%. With `COc1ccc(N2C(=O)CSC23C(=O)N(Cc2cccc(F)c2)c2ccccc23)cc1Cl` (centres undefined) the survival was inactive: 93%. `O=S(=O)(c1ccc2nc(N3CCN(c4ccccc4F)CC3)ccc2c1)N1CCCCC1` was tested, and the survival was inactive: 115%. `Cc1nc(-n2nc(C)c(CCC(C)C)c2C)sc1C(=O)Nc1ccc(Cl)cc1` was tested, and the survival was inactive: 56%. For `Cc1ccc(-n2nc(C)c3c(C)cc(=O)n(CC(=O)Nc4cccc(C)c4C)c32)cc1`, the survival was inactive: 123%.
